Hit rate of the full screen: of about 340,000 compounds, about 6,900 (2%) were called active. Rule as the data show it: active = inhibition above about 30%; inactive = below that, where a call was filed. The list shows a part of the results, in another mix than the full data. The source gives no active or inactive call for entries shown without one.

Chain of UniProt P14416 (P14416 whole entry, looked up): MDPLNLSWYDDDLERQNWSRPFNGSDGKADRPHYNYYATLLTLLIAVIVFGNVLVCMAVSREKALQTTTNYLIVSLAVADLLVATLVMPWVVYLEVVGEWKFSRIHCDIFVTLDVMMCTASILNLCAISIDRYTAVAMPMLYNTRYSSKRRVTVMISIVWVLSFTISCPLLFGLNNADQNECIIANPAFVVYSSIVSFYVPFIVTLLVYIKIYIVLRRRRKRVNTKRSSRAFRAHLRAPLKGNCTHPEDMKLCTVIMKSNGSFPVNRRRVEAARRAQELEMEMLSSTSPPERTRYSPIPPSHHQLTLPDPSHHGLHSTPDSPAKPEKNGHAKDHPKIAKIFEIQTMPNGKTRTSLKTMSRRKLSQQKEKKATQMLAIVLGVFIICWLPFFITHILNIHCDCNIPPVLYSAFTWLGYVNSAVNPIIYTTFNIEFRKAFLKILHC

For the test, the target named is D(2) dopamine receptor (Homo sapiens) (UniProt P14416). Nature of the test: HTS Assay for Allosteric Antagonists of the Human D2 Dopamine Receptor: Primary Screen for Antagonists. Also: 0% is about no effect. As to conditions: HEK293 TREx D2 cells, calcium flux, dopamine EC80; at 10 µM; stronger effect = higher value. The procedure, abridged:
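Measurement of antagonist activity uses fluorescent calcium dye in inducible HEK293 T-REx D2 cells: 10 s baseline, compound addition with 180 s read, EC80 dopamine addition with a further 180 s read.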
Background: Calcium assays in cells follow changes in intracellular calcium, usually with a dye or a luminescent sensor.
For `Cc1ccc(CNC(=O)CN2C(=O)C3CCCCN3c3ccc(C(=O)N(C)C)cc32)cc1` (stereo unspecified), the inhibition (commonly the change of the read-out against control, counted positive when it falls) turned out to be 22.8%.
The figure for `COc1ccccc1NC(=O)CN1C(=O)C(C)(C)c2ccccc21` is -0.535%; for `CC1=C(C(=O)Nc2ccccc2C)C(c2sccc2C)n2ncnc2N1` (stereo unspecified) it is 2.56%.
The figure for `Cc1ccc(S(N)(=O)=O)cc1NC(=O)c1c(-c2c(Cl)cccc2Cl)noc1C` is -11.6%.
The figure for `Cc1cccc(CSc2ncc(Cl)c(C(=O)Nc3nnc(C)s3)n2)c1` is 2.9%; for `OC(COc1ccc(Cl)cc1)CN1CCN(c2cccc(Cl)c2)CC1` (stereo unspecified) it is active: 72.7%.
With `Cc1ccc2oc(C(=O)NCC(c3ccc(Cl)cc3)N3CCOCC3)c(C)c2c1` (stereo unspecified), the inhibition is -11.4%.
To `O=C(CSc1nnc(COc2ccc(F)cc2)o1)N1CCCCC1` belongs active: 97.1%.
As for `Cc1ccc(CNC(=O)c2cc3c(=O)n4cccc(C)c4nc3s2)cc1`, the inhibition is -4.32%.
As for `COc1ccc(C2(N3CCN(c4cc(C)ccc4C)CC3)C(=O)c3ccccc3C2=O)cc1`, the inhibition came to 7.52%.
To `COc1cccc(CNC(=O)CCC2CCCN(C(=O)c3cc(C4CC4)[nH]n3)C2)c1` (stereo unspecified) belongs active: 63%; to `N#Cc1cccc(NC(=O)C2CCN(S(=O)(=O)c3ccc4c(c3)CCCN4C(=O)C3CCC3)CC2)c1`, -26.2%; to `CCOc1ccccc1NC(=O)CSc1nc2cc(OC)c(OC)cc2c2nc(CCn3c(C)nc4ccccc43)nn12`, 5.95%.
To `CC(C)Sc1nnc(-c2ccc(S(=O)(=O)N3CCOCC3)cc2)n1C` belongs active: 34.9%.
To `Cc1ccc(-c2nc(CCNC(=O)C(=O)Nc3ccc(C)c(Cl)c3)cs2)cc1` belongs -7.74%; to `COc1ccccc1C(=O)Nc1ccccc1C(=O)OCc1cc(=O)n2ccsc2n1`, -4.69%.
On to `CCOC(=O)c1sc(NC(=O)c2nc3nc(C)cc(C(F)F)n3n2)c(C(=O)OC(C)C)c1C`, for which the inhibition is 13.1%.
For the molecule `CCCOc1ccc(CNC(=O)CCCN2C(=O)CSc3c2c(C)nn3-c2ccccc2)cc1`, the inhibition came out at 1.44%.
Consider `CCOc1ccc(Nc2cc(C)nc3nncn23)cc1`, for which the inhibition was -8.69%.
Turning to `Cc1ccccc1NC(=O)Cn1cc(S(=O)(=O)c2ccccc2)c(=O)c2ccccc21`, the inhibition is -5.35%.
Turning to `COc1ccc(NC(=O)c2cc3c(-c4ccccc4F)nn(C)c3s2)c(OC)c1`, the inhibition is -1.1%.
The figure for `CCC(C)NC(=O)c1cc(Sc2cccc(Cl)c2)nc2ccccc12` (stereo unspecified) is -23.1%; for `FC(F)(F)c1cccc(N2CCN(c3ncnc4c3nc3n4CCCC3)CC2)c1` it is -5.55%; for `CCN1CCN(Cc2c(O)ccc3oc(C)c(C(=O)Nc4cccc(Cl)c4C)c23)CC1` it is -9.98%.
To `CCCn1c2ccccc2c2cnn(CC(=O)NCCCN3CCCCC3CC)c(=O)c21` (stereo unspecified) belongs -14%.
For the molecule `O=C(Cn1nc(C(F)(F)F)c2c1CCCC2)Nc1cccc(Cl)c1`, the inhibition is 10.8%.
The figure for `CCCN(C(=O)c1cc(S(=O)(=O)N2CCc3ccccc32)cn1C)c1ccc(OCC)cc1` is 12.2%.
Take `Cc1ccc(Cl)cc1N1CCN(c2ncnc3c2nc2n3CCCC2)CC1`: the inhibition was -4.31%.
`CCOc1ccc(C2C(C(=O)Nc3ccccc3)=C(C)Nc3nc(-c4ccccc4Cl)nn32)cc1OC` (stereo unspecified): the inhibition was -1.82%.
The figure for `COc1ccc(CNC(=O)Cn2c(=O)oc3cc(S(=O)(=O)NCc4ccccc4)ccc32)cc1` is 20.9%.
As to `CCOc1ccc(-c2cc(NC(=O)c3ccccc3)c(C(=O)OC)s2)cc1`, the inhibition was -8.72%.
In the case of `O=c1[nH]c(C2CCN(S(=O)(=O)c3ccccc3)CC2)nc2c1nnn2Cc1cccc(Cl)c1`, the inhibition is active: 31.7%.
On to `COc1ccccc1CCNC(=O)c1cccn1-c1nnc(N2CCCC2)s1`, for which the inhibition is 5.55%.
To `Cc1cc(C)c(NC(=O)Cn2c(=O)oc3cc(S(=O)(=O)N4CCCCCC4)ccc32)c(C)c1` belongs 16%.
For the molecule `Cc1ccc(Cc2nc3ccccc3nc2SCC(=O)N2CCC(C)CC2)cc1`, the inhibition is -10.3%.
The figure for `Cc1ccc(NC(=O)Cn2c(=O)n(-c3ccc(C)cc3)c(=O)c3c2cnn3C)cc1` is 2.36%.
Regarding `Cc1ccc(-n2nc(C)c3c(C)c(CCC(=O)NC(C)c4ccccc4)c(C)nc32)cc1` (stereo unspecified), the inhibition is -10%.
As for `Fc1ccc(CN2CCc3nc(N4CCN(c5ccccc5F)CC4)ncc3C2)c(F)c1`, the inhibition is 7.7%.
The figure for `CCOc1ccc(NC(=O)c2c(C)oc3nc(C)nc(N4CCCC4)c23)cc1` is -3.76%; for `COc1cccc(C(=O)Nc2ccc3nc(SCC(=O)N(C)c4ccccc4)sc3c2)c1` it is -16.1%.
The figure for `Cc1ccc(CNC(=O)c2ccc(CSc3nc4ccncc4n3Cc3ccc(C)cc3)cc2)cc1` is 11.6%; for `COc1ccc(CCNC(=O)CCc2cn(Cc3ccccc3Cl)c3ccccc23)c(OC)c1` it is 11.9%; for `O=C(NCCc1ccc(Cl)cc1)C1CCN(Cc2cc3ccccc3n2Cc2ccccc2)CC1` it is -1.55%.
In the case of `CCC1Sc2ccccc2N(CC(=O)NCc2ccc(C)cc2)C1=O` (stereo unspecified), the inhibition is -3.04%.
On to `O=S(=O)(c1ccc(Cl)cc1)c1nnn2c1nc(NC1CCCC1)c1sccc12`, for which the inhibition was -4.34%.
The figure for `COc1ccc(N2CCN(C(CNS(=O)(=O)c3ccc(OC)c(C)c3)c3ccco3)CC2)cc1` (stereo unspecified) is -6.69%; for `Cc1cccn2c(=O)c3cc(C(=O)NCC(C)C)sc3nc12` it is -22%; for `Cc1noc2ncnc(N3CCN(c4cccc(C(F)(F)F)c4)CC3)c12` it is -4.14%.
To `COc1ccc(C)cc1-n1c(-c2ccc(Cl)cc2)cc2c1CC(C)(C)CC2=O` belongs -9.62%.
Consider `O=C(CCN1CCCCC1)Nc1cccc(Cl)c1`, for which the inhibition is active: 56.8%.
The figure for `Nc1c(C(=O)Nc2ccccc2Br)sc2nc(-c3cccs3)ccc12` is -2.38%; for `O=C(CSc1nc2c([nH]c3ccccc32)c(=O)n1-c1ccccc1)Nc1ccc2c(c1)OCO2` it is 3.86%; for `Cc1cc(NC(=O)N2CCC(CN3CCCCCC3)CC2)ccc1Br` it is 0.921%.
As for `COc1cccc(NC(=O)c2c(C)nn(-c3cccc(C)c3)c2-n2cccc2)c1`, the inhibition came to 6.58%.
As to `O=C(Cn1ccc2cc(S(=O)(=O)N3CCCCCC3)ccc21)NCc1ccccc1Cl`, the inhibition was found to be 2.41%.
Turning to `COC(=O)c1ccc2c(=O)n(CCCCCC(=O)NCCc3ccccc3)c(=O)[nH]c2c1`, the inhibition is -2.54%.
To `CCc1ccc(OCC2c3cc(OC)c(OC)cc3CCN2C(=O)c2ccc(S(=O)(=O)N3CCCC3)cc2)cc1` (stereo unspecified) belongs 20.8%.
For `CCn1cc(C(=O)NCCCOC(C)C)c(=O)c2cc(S(=O)(=O)N3CCOCC3)ccc21`, the inhibition was -8.67%.
As to `O=C(CN1CCC(NC(=O)c2ccco2)CC1)Nc1ccccc1C(F)(F)F`, the inhibition was active: 49.8%.
`CCOC(=O)c1cnc2c(ccc3ccccc32)c1Nc1ccc(N(C)C)cc1`: the inhibition is -11.3%.
The figure for `CC(C)N(Cc1ccccc1)C(=O)c1nc(-c2ccc(Cl)cc2)n2c1CCCCC2` is 3.71%.
